# From the supplement of paper PMC8728848
# The list shows a part of the results.
# What was measured:
# Test in all cases: glycan array binding signal (z-score within array); higher = stronger binding
# Settings in all cases: glycan notation: IUPAC condensed, linker removed
# [1] = target: Gal(a1-3)Gal(b1-4)GlcNAc(b1-2)Man
# Procedure, shortened: (§1)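 The Consortium for Functional Glycomics database supplied 3228 glycan arrays, of which those lacking an available protein sequence were dropped. The binding signal, a within-array Z-score, was averaged across arrays of the same protein sequence and across linkers. Negative scores can be read as non-binding.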
# [2] = target: Gal(a1-3)Gal(b1-4)GlcNAc(b1-2)Man(a1-3)[Gal(a1-3)Gal(b1-4)GlcNAc(b1-2)Man(a1-6)]Man(b1-4)GlcNAc(b1-4)GlcNAc
# Procedure, shortened: as §1
# [3] = target: Gal(a1-3)Gal(b1-4)GlcNAc(b1-3)GalNAc
# Procedure, shortened: as §1
# [4] = target: Gal(a1-3)Gal(b1-4)GlcNAc(b1-6)GalNAc
# Procedure, shortened: as §1
# [5] = target: Gal(a1-3)Gal(b1-4)[Fuc(a1-3)]GlcNAc
# Procedure, shortened: as §1
# [6] = target: Gal(a1-3)Gal(b1-4)[Fuc(a1-3)]GlcNAc(b1-2)Man(a1-3)[Gal(a1-3)Gal(b1-4)[Fuc(a1-3)]GlcNAc(b1-2)Man(a1-6)]Man(b1-4)GlcNAc(b1-4)GlcNAc
# Procedure, shortened: as §1
# Gal(a1-3)GalNAc = target: Gal(a1-3)GalNAc
# Procedure, shortened: as §1
# [7] = target: Gal(a1-3)[Gal(a1-4)]Gal(b1-4)GlcNAc
# Procedure, shortened: as §1
# [8] = target: Gal(a1-4)Gal(b1-3)GlcNAc(b1-2)Man(a1-3)[Gal(a1-4)Gal(b1-3)GlcNAc(b1-2)Man(a1-6)]Man(b1-4)GlcNAc(b1-4)GlcNAc
# Procedure, shortened: as §1
# Gal(a1-4)Gal(b1-4)Glc = target: Gal(a1-4)Gal(b1-4)Glc
# Procedure, shortened: as §1
# Gal(a1-4)Gal(b1-4)GlcNAc = target: Gal(a1-4)Gal(b1-4)GlcNAc
# Procedure, shortened: as §1
# [9] = target: Gal(a1-4)Gal(b1-4)GlcNAc(b1-2)Man(a1-3)[Gal(a1-4)Gal(b1-4)GlcNAc(b1-2)Man(a1-6)]Man(b1-4)GlcNAc(b1-4)GlcNAc
# Procedure, shortened: as §1
# [10] = target: Gal(a1-4)Gal(b1-4)GlcNAc(b1-3)Gal(b1-4)Glc
# Procedure, shortened: as §1
# Gal(a1-4)GlcNAc = target: Gal(a1-4)GlcNAc
# Procedure, shortened: as §1
# Gal(a1-6)Glc = target: Gal(a1-6)Glc
# Procedure, shortened: as §1
# Gal(b1-2)Gal = target: Gal(b1-2)Gal
# Procedure, shortened: as §1
# Gal(b1-3)Gal = target: Gal(b1-3)Gal
# Procedure, shortened: as §1
# Gal(b1-3)Gal(b1-4)GlcNAc = target: Gal(b1-3)Gal(b1-4)GlcNAc
# Procedure, shortened: as §1
# Gal(b1-3)GalNAc = target: Gal(b1-3)GalNAc
# Procedure, shortened: as §1
# [11] = target: Gal(b1-3)GalNAc(a1-3)[Fuc(a1-2)]Gal(b1-4)Glc
# Procedure, shortened: as §1
# [12] = target: Gal(b1-3)GalNAc(a1-3)[Fuc(a1-2)]Gal(b1-4)GlcNAc
# Procedure, shortened: as §1
# Gal(b1-3)GalNAc(b1-3)Gal = target: Gal(b1-3)GalNAc(b1-3)Gal
# Procedure, shortened: as §1
# [13] = target: Gal(b1-3)GalNAc(b1-3)Gal(a1-4)Gal(b1-4)Glc
# Procedure, shortened: as §1
# [14] = target: Gal(b1-3)GalNAc(b1-4)Gal(b1-4)Glc
# Procedure, shortened: as §1
# [15] = target: Gal(b1-3)GalNAc(b1-4)[Neu5Ac(a2-3)]Gal(b1-4)Glc
# Procedure, shortened: as §1
# Gal(b1-3)GlcNAc = target: Gal(b1-3)GlcNAc
# Procedure, shortened: as §1
# [16] = target: Gal(b1-3)GlcNAc(a1-3)Gal(b1-4)GlcNAc
# Procedure, shortened: as §1
# [17] = target: Gal(b1-3)GlcNAc(a1-6)Gal(b1-4)GlcNAc
# Procedure, shortened: as §1
# Gal(b1-3)GlcNAc(b1-2)Man = target: Gal(b1-3)GlcNAc(b1-2)Man
# Procedure, shortened: as §1
# [18] = target: Gal(b1-3)GlcNAc(b1-2)Man(a1-3)[Gal(b1-3)GlcNAc(b1-2)Man(a1-6)]Man(b1-4)GlcNAc(b1-4)GlcNAc
# Procedure, shortened: as §1
# [19] = target: Gal(b1-3)GlcNAc(b1-2)Man(a1-3)[Gal(b1-3)GlcNAc(b1-2)Man(a1-6)]Man(b1-4)GlcNAc(b1-4)[Fuc(a1-6)]GlcNAc
# Procedure, shortened: as §1
# [20] = target: Gal(b1-3)GlcNAc(b1-2)Man(a1-3)[GlcNAc(b1-4)][Gal(b1-3)GlcNAc(b1-2)Man(a1-6)]Man(b1-4)GlcNAc(b1-4)GlcNAc
# Procedure, shortened: as §1
# [21] = target: Gal(b1-3)GlcNAc(b1-2)[Gal(b1-3)GlcNAc(b1-6)]Man(a1-6)[Gal(b1-3)GlcNAc(b1-2)Man(a1-3)]Man(b1-4)GlcNAc(b1-4)GlcNAc
# Procedure, shortened: as §1
# [22] = target: Gal(b1-3)GlcNAc(b1-3)Gal(b1-3)GlcNAc
# Procedure, shortened: as §1
# [23] = target: Gal(b1-3)GlcNAc(b1-3)Gal(b1-4)Glc
# Procedure, shortened: as §1
# [24] = target: Gal(b1-3)GlcNAc(b1-3)Gal(b1-4)GlcNAc
# Procedure, shortened: as §1
# [25] = target: Gal(b1-3)GlcNAc(b1-3)Gal(b1-4)GlcNAc(b1-2)Man(a1-3)[Gal(b1-3)GlcNAc(b1-3)Gal(b1-4)GlcNAc(b1-2)Man(a1-6)]Man(b1-4)GlcNAc(b1-4)GlcNAc
# Procedure, shortened: as §1
# [26] = target: Gal(b1-3)GlcNAc(b1-3)Gal(b1-4)GlcNAc(b1-2)[Gal(b1-3)GlcNAc(b1-3)Gal(b1-4)GlcNAc(b1-6)]Man(a1-6)[Gal(b1-3)GlcNAc(b1-3)Gal(b1-4)GlcNAc(b1-2)Man(a1-3)]Man(b1-4)GlcNAc(b1-4)[Fuc(a1-6)]GlcNAc
# Procedure, shortened: as §1
# [27] = target: Gal(b1-3)GlcNAc(b1-3)Gal(b1-4)GlcNAc(b1-3)Gal(b1-4)GlcNAc(b1-2)[Gal(b1-3)GlcNAc(b1-3)Gal(b1-4)GlcNAc(b1-3)Gal(b1-4)GlcNAc(b1-6)]Man(a1-6)[Gal(b1-3)GlcNAc(b1-3)Gal(b1-4)GlcNAc(b1-3)Gal(b1-4)GlcNAc(b1-2)Man(a1-3)]Man(b1-4)GlcNAc(b1-4)[Fuc(a1-6)]GlcNAc
# Procedure, shortened: as §1
# [28] = target: Gal(b1-3)GlcNAc(b1-3)Gal(b1-4)GlcNAc(b1-6)[Gal(b1-3)GlcNAc(b1-3)]Gal(b1-4)Glc
# Procedure, shortened: as §1
# [29] = target: Gal(b1-3)GlcNAc(b1-3)Gal(b1-4)[Fuc(a1-3)]GlcNAc
# Procedure, shortened: as §1
# [30] = target: Gal(b1-3)GlcNAc(b1-3)Gal(b1-4)[Fuc(a1-3)]GlcNAc(b1-6)[Gal(b1-3)GlcNAc(b1-3)]Gal(b1-4)Glc
# Procedure, shortened: as §1
# [31] = target: Gal(b1-3)GlcNAc(b1-3)GalNAc
# Procedure, shortened: as §1
# [32] = target: Gal(b1-3)GlcNAc(b1-6)Gal(b1-4)GlcNAc
# Procedure, shortened: as §1
# [33] = target: Gal(b1-3)GlcNAc(b1-6)GalNAc
# Procedure, shortened: as §1
binder,measurement,setting,value
RBMC2 (Vibrio cholerae) (protein) KISVRSGFAIDAIGASASTLVGGTGGNLNAAVNVKDIKAIDLTWGKYYWGGYHLLALDFRMSNGSVISMGSKNYAYSKQTERFTVPAGSRIKGIKAWTAGWLLDGVQFELA,glycan array binding signal (z-score),[1],-0.29
same,glycan array binding signal (z-score),[2],3.79
same,glycan array binding signal (z-score),[3],-0.194
same,glycan array binding signal (z-score),[4],-0.344
same,glycan array binding signal (z-score),[5],-0.368
same,glycan array binding signal (z-score),[6],0.834
same,glycan array binding signal (z-score),Gal(a1-3)GalNAc,-0.276
same,glycan array binding signal (z-score),[7],-0.319
same,glycan array binding signal (z-score),[8],2.49
same,glycan array binding signal (z-score),Gal(a1-4)Gal(b1-4)Glc,-0.077
same,glycan array binding signal (z-score),Gal(a1-4)Gal(b1-4)GlcNAc,-0.372
same,glycan array binding signal (z-score),[9],4.07
same,glycan array binding signal (z-score),[10],-0.304
same,glycan array binding signal (z-score),Gal(a1-4)GlcNAc,-0.365
same,glycan array binding signal (z-score),Gal(a1-6)Glc,-0.256
same,glycan array binding signal (z-score),Gal(b1-2)Gal,-0.249
same,glycan array binding signal (z-score),Gal(b1-3)Gal,-0.438
same,glycan array binding signal (z-score),Gal(b1-3)Gal(b1-4)GlcNAc,-0.382
same,glycan array binding signal (z-score),Gal(b1-3)GalNAc,-0.233
same,glycan array binding signal (z-score),[11],-0.069
same,glycan array binding signal (z-score),[12],-0.258
same,glycan array binding signal (z-score),Gal(b1-3)GalNAc(b1-3)Gal,-0.404
same,glycan array binding signal (z-score),[13],-0.339
same,glycan array binding signal (z-score),[14],-0.191
same,glycan array binding signal (z-score),[15],-0.407
same,glycan array binding signal (z-score),Gal(b1-3)GlcNAc,-0.297
same,glycan array binding signal (z-score),[16],-0.3
same,glycan array binding signal (z-score),[17],-0.422
same,glycan array binding signal (z-score),Gal(b1-3)GlcNAc(b1-2)Man,-0.386
same,glycan array binding signal (z-score),[18],3.3
same,glycan array binding signal (z-score),[19],1.55
same,glycan array binding signal (z-score),[20],-0.232
same,glycan array binding signal (z-score),[21],-0.23
same,glycan array binding signal (z-score),[22],-0.371
same,glycan array binding signal (z-score),[23],-0.361
same,glycan array binding signal (z-score),[24],-0.35
same,glycan array binding signal (z-score),[25],0.919
same,glycan array binding signal (z-score),[26],0.071
same,glycan array binding signal (z-score),[27],-0.181
same,glycan array binding signal (z-score),[28],-0.372
same,glycan array binding signal (z-score),[29],-0.2
same,glycan array binding signal (z-score),[30],-0.278
same,glycan array binding signal (z-score),[31],-0.342
same,glycan array binding signal (z-score),[32],-0.056
same,glycan array binding signal (z-score),[33],-0.394
